Data on 93 compounds can be found in PubChem BioAssay AID463173 (ICCB-Longwood Screening Facility, Harvard Medical School, 2010).

Out of some 52,000 compounds screened, about 4,300 (8.3%) were called active. Rule as the data show it: active = survival mostly below about 52% (no sharp cut-off); inactive = mostly above about 56%. The list shows a part of the results.

For the assay, the system named is DeltatarO mutant. Put plainly: growth inhibition of S. aureus wild type versus tarO mutant, primary screen, teichoic acid synthesis inhibitors, RN4220, OD600 (AID 463173). The note with it: OD600, 18 h, hits give low values, screened at 18.75 µg/mL (by protocol).
Regarding `COc1ccc(NC(=O)c2oc3ccccc3c2NC(=O)c2cc(=O)c3ccccc3o2)cc1`, the survival is inactive: 83%.

On to `CCCCN(CCCC)CCn1cnc2c([nH]c3ccc(OC)cc32)c1=O`, for which the survival is inactive: 119%.

Regarding `COc1ccc(CNC(=O)c2ccc(-c3nc(CSc4ccccc4)c(C)o3)cc2)cc1`, the survival is inactive: 80%.

As for `O=C(Nc1ccccc1)NC1(C(=O)N2CCN(C(=O)c3ccco3)CC2)CCCCC1`, the survival is inactive: 70%.

As to `CCOc1ccccc1NC(=O)C1CCCN(C(=O)Nc2ccccc2)C1` (stereo not drawn), the survival was inactive: 96%.

`CCOC(=O)c1cnc2c(OC)cccc2c1N1CCN(c2ccccc2F)CC1`: the survival was active: 1%.

Regarding `CC(=O)N1CCN(CCN=CC2=C(O)CC(c3ccco3)CC2=O)CC1` (stereo not drawn), the survival is inactive: 107%.

Turning to `COc1ccc(CCNC(=O)CCCCn2c(=O)c3ccccc3n(Cc3cccc(C)c3)c2=O)cc1OC`, the survival was inactive: 92%.

For the compound `CCOC(=O)c1c(NC(=O)C(C)Oc2ccccc2F)sc(C(C)=O)c1C` (stereo not drawn), the survival was inactive: 52%.

As for `c1ccc(N=C(c2cccs2)N2CCOCC2)cc1`, the survival was inactive: 107%.

Turning to `Cc1nn2c(=O)cc(COC(=O)c3ccccc3NC(=O)C3CCCCC3)nc2s1`, the survival was inactive: 73%.

For `CCOc1ccc(N(CC)S(=O)(=O)N2CCCC(C(=O)NCc3ccccc3OCC)C2)cc1` (stereo not drawn), the survival is inactive: 79%.

`O=C(NCCc1csc(-c2cccc(F)c2)n1)c1ccco1`: the survival is inactive: 94%.

In the case of `COc1cc(C(=O)N(CCCN(C)C)c2nc3c(OC)cccc3s2)cc(OC)c1OC`, the survival was inactive: 122%.

On to `O=C(NC1CCCC1)c1ccc2c(c1)N(Cc1c(F)cccc1Cl)C(=O)c1ccccc1S2`, for which the survival is inactive: 116%.

Take `CCc1ccc(-c2nc(CN3CCCC(C(=O)NCc4ccccc4Cl)C3)c(C)o2)cc1` (stereo not drawn): the survival was inactive: 67%.

Consider `Cc1ccc2c(c1)-c1nc(-c3ccccc3)cc(-c3ccccc3)c1CO2`, for which the survival is inactive: 91%.

On to `CCCN(CCC)S(=O)(=O)c1ccc(C(=O)N2CCC(=O)c3ccccc32)cc1`, for which the survival is inactive: 94%.

With `Cc1[nH]c2ccccc2c1C1(O)C(=O)Nc2ccc(Cl)cc21` (stereo not drawn), the survival was inactive: 66%.

As for `COc1cccc(C(=O)NCC(c2ccc3c(c2)OCO3)N2CCN(C)CC2)c1` (stereo not drawn), the survival was inactive: 112%.

For `Cc1ccc(-n2c3c(c(=O)[nH]c2=O)C(NC(=O)C(C)(C)C)(C(F)(F)F)C(=O)N3)cc1` (stereo not drawn), the survival was inactive: 55%.

For the compound `COc1ccc(OC)c(NC(=O)CCCOc2cc(=O)n(C)c3ccccc23)c1`, the survival was inactive: 63%.

Turning to `CC(Nc1ccccc1)c1ccncc1` (stereo not drawn), the survival was inactive: 80%.

Regarding `COc1cccc(NC(=O)CSC2=Nc3ccccc3C3=NC(CCC(=O)NC4CCCCC4)C(=O)N23)c1` (stereo not drawn), the survival is inactive: 78%.

Turning to `Cc1nn(CC(=O)NC(C)c2ccccc2)c(=O)c2cc3occc3n12` (stereo not drawn), the survival is inactive: 90%.

Consider `Cc1cc2ncn(S(=O)(=O)c3ccc(S(=O)(=O)NCC4CCCO4)cc3)c2cc1C` (stereo not drawn), for which the survival was inactive: 82%.

As to `COc1cccc2c1Oc1ncccc1N(C(=O)CCC(=O)NCc1ccc(OC(C)C)cc1)C2`, the survival is inactive: 83%.

For the compound `CCOC(=O)C1=C(CN2CCN(c3ccc(Cl)cc3)CC2)NC(=O)NC1c1ccc(F)cc1` (stereo not drawn), the survival was inactive: 70%.

Consider `NC(=O)COc1ccc(-c2noc(COc3ccc(Cl)cc3)n2)cc1`, for which the survival is inactive: 153%.

On to `O=C(CSc1nc2c([nH]c3ccccc32)c(=O)n1-c1ccccc1)Nc1ccccc1C(F)(F)F`, for which the survival is inactive: 87%.

With `NS(=O)(=O)c1ccc(CCNC(=O)Cn2c(=O)c3cccn3c3ccc(F)cc32)cc1`, the survival was inactive: 89%.

Regarding `COc1ccc2c(c1)CC(C(=O)Nc1c(C)cc(C)cc1C)CO2` (stereo not drawn), the survival was inactive: 75%.

For `COc1cc(OC)c(NC(=O)Cn2c(=O)nc(-c3ccccc3)c3ccccc32)cc1Cl`, the survival is inactive: 102%.

For `COCCCNc1oc(-c2ccc(COc3ccccc3C)o2)nc1C#N`, the survival was active: 43%.

In the case of `COc1cccc(Cn2c(=O)n(-c3cc(C)cc(C)c3)c(=O)c3oc4ccccc4c32)c1`, the survival was inactive: 62%.

As to `Cc1nnc(N(Cc2ccco2)C(=O)c2cccc(C#N)c2)s1`, the survival is inactive: 94%.

For the compound `CCc1ccccc1NC(=O)Cn1cc(C(=O)c2ccncc2)c(=O)c2cc(C)ccc21`, the survival was inactive: 83%.

As to `O=C(CCSCCc1ccccn1)Nc1ccccc1C(F)(F)F`, the survival was inactive: 73%.

In the case of `CC(=O)Nc1ccc(C(=O)N2CCOCC2)cc1`, the survival was inactive: 85%.

For `O=C(COCc1cc(-c2ccc(F)cc2)on1)Nc1cc(Cl)cc(Cl)c1`, the survival is inactive: 144%.

With `Cc1ccc(-n2ncc3c(NCCc4ccccc4)ncnc32)cc1Cl`, the survival was inactive: 65%.

Regarding `COc1ccc(CCNC(=O)c2cc(-c3ccc(C)cc3)nc3n[nH]c(-c4ccc(F)cc4)c23)cc1OC`, the survival was inactive: 107%.

Turning to `O=C(NCc1ccccc1)C1CCCN1S(=O)(=O)c1ccc(Cl)cc1` (stereo not drawn), the survival was inactive: 93%.

Take `O=C1NN(c2ccccc2)C(=O)/C1=C\c1ccccc1`: the survival was inactive: 99%.

Take `O=C(CCSCc1cccc(F)c1)NCCc1ccccc1`: the survival is inactive: 107%.

For the compound `CCCCCOc1ccc(C(=O)CCN2CCOCC2)cc1`, the survival is inactive: 90%.

With `CCCN1CCN(CCCNC(=O)c2cc3c(=O)[nH]c4ccccc4c3s2)CC1`, the survival is inactive: 79%.

For `COc1ccc(NC(=O)CNC(=O)Cn2ccc3ccccc3c2=O)c(OC)c1`, the survival is inactive: 67%.

As for `Nc1c(C(=O)N2CCOCC2)sc2nc3c(cc12)CCCC3`, the survival was inactive: 89%.

Regarding `CCc1ccc(NC(=O)C2CCN(c3ccc(Sc4ccc(C)cc4)nn3)CC2)cc1`, the survival was inactive: 93%.

Regarding `C=CCOc1cccc(CNn2nnnc2N)c1`, the survival was inactive: 97%.

As to `CCOc1cc(CNC(=O)c2cc(-c3ccc(Cl)s3)nc3ccccc23)ccc1OC`, the survival is inactive: 84%.

Consider `CCCC(=O)C1=C(N(C)c2ccccc2)CC(C)(C)CC1=O`, for which the survival was inactive: 75%.

Regarding `COc1ccc(CCNC(=O)Cn2c(=O)cc(C(F)(F)F)c3c(C)nn(C)c32)c(OC)c1`, the survival is inactive: 80%.

As to `CCc1ccc(C2=CC(c3cccc(OC)c3OC)n3c(nc4ccccc43)N2)cc1` (stereo not drawn), the survival was inactive: 61%.

On to `Cc1ccc(N2CCN(S(=O)(=O)c3nnc(NC(=O)c4cccc(F)c4)s3)CC2)cc1`, for which the survival is inactive: 57%.

In the case of `Cc1ccc(CNC(=O)c2cnc(N3CCCC3)nc2C)cc1`, the survival is inactive: 91%.

`CCc1ccccc1NC(=O)c1nnn(CC(=O)Nc2c(C)cc(C)cc2C)c1N`: the survival is inactive: 85%.

Take `N#Cc1ccccc1NC(=O)CSC1=NCCS1`: the survival is inactive: 99%.

Take `Cc1cc(C)c2c(NC(=O)c3ccccc3Cl)c(C(=O)Nc3ccc(C)c(C)c3)sc2n1`: the survival is inactive: 47%.

Turning to `CN(C(=O)CSc1nc2ccc(NC(=O)c3ccco3)cc2s1)c1ccccc1`, the survival is inactive: 59%.

For `COc1cccc(OC(=O)N2CCOCC2)c1`, the survival was inactive: 103%.

`CC1CCC2C(C1)Nc1c(C(=O)O)cccc1C2(C)C` (stereo not drawn): the survival was active: 40%.

With `O=C(CSC1=NCCS1)OCN1C(=O)c2ccccc2C1=O`, the survival is inactive: 103%.

As to `CCOC(=O)c1cc(S(=O)(=O)N2CCN(c3cccc(C)c3)C(C)C2)[nH]n1` (stereo not drawn), the survival was inactive: 92%.

For the compound `Cc1ccc2nc3sc(C(=O)Nc4ccc(F)cc4)cc3cc2c1`, the survival is active: 37%.

Regarding `COC(=O)c1ccc(NC(=O)C(C)N2Cc3ccccc3C2=O)cc1` (stereo not drawn), the survival is inactive: 66%.

Consider `COc1ccc(N2CCN(C(=O)c3c(C)oc4ncn(CC(C)C)c(=O)c34)CC2)cc1`, for which the survival was inactive: 84%.

On to `COc1cc(CNCCSc2nnnn2C)ccc1OCc1ccccc1`, for which the survival was inactive: 73%.

`N=c1n(CCN2CCCCC2)c2ccccc2n1CC(O)c1ccc2c(c1)OCO2` (stereo not drawn): the survival is inactive: 83%.

Turning to `CCCC(=O)Nc1ccc2nc(SCCOc3ccccc3)sc2c1`, the survival was inactive: 91%.

For `CCCN1Cc2cccc(C(=O)Nc3ccccc3F)c2C1=O`, the survival is inactive: 94%.

On to `Cc1cccc(NC(=O)C(=O)NCC(c2cccnc2)N2CCN(Cc3ccccc3)CC2)c1` (stereo not drawn), for which the survival is inactive: 81%.

For `CCOc1ccc(NCc2cccn2-c2nnc(N3CCC(C(=O)NCCc4ccc(OCC)c(OCC)c4)CC3)s2)cc1`, the survival is inactive: 66%.

With `O=C(NC12CC3CC(CC(C3)C1)C2)c1ccco1`, the survival is inactive: 72%.

In the case of `CCC(NC(=O)c1ccccc1)c1ccccc1` (stereo not drawn), the survival was inactive: 90%.

As to `COCCn1c(C)cc(O)c(C(c2ccc(OC)cc2)N2CCCCC2)c1=O` (stereo not drawn), the survival was inactive: 83%.

Consider `CC1CN(C(=O)Nc2ccc(C(=O)NCCc3ccc(Cl)cc3)cc2)c2ccccc2S1` (stereo not drawn), for which the survival is inactive: 88%.

For the compound `O=C(Cc1ccccc1)NN1C(=O)c2ccccc2C1=O`, the survival was inactive: 92%.

In the case of `COc1ccc2ncc3c(-c4ccccc4)nn(-c4ccc(C)c(C)c4)c3c2c1`, the survival is active: 18%.

In the case of `COc1ccccc1NC(=O)CSc1ncc(CO)n1Cc1ccc(F)cc1`, the survival was inactive: 128%.

For the compound `CC(C)c1cnc2c(c1SCC(=O)c1ccc(Cl)cc1)c(=O)n(C)c(=O)n2C`, the survival is inactive: 90%.

For `Cc1ccccc1NC(=O)Cn1c(=O)n(Cc2ccco2)c(=O)c2ccc(C(=O)NC3CCCC3)cc21`, the survival was inactive: 77%.

In the case of `Cc1cccc(N2CCN(C(=O)C3CCN(S(=O)(=O)Cc4ccccc4)CC3)CC2)c1C`, the survival was inactive: 71%.

As to `CC1CCN(C(=O)CSc2nc3ccccc3c(=O)[nH]2)CC1`, the survival is inactive: 92%.

`Cc1cc(-c2ccccc2)nc2cc(C(=O)Nc3ccc(Cl)c(Cl)c3)nn12`: the survival is inactive: 52%.

With `O=C(NCN1CCCCC1)Nc1cccc(Cl)c1`, the survival is inactive: 89%.

With `COc1ccc(CN(Cc2cc3cccc(C)c3n3nnnc23)C(=O)N2CCOCC2)cc1`, the survival was inactive: 96%.

On to `COc1ccc(Cl)cc1NC(=O)c1c(NCc2cccnc2)sc2c1CCCC2`, for which the survival is inactive: 79%.

Regarding `CC(C)(C)OC(=O)N1CCC(c2c(C(=O)NCCc3ccsc3)cnn2-c2ccc(F)cc2F)CC1`, the survival is inactive: 81%.

Take `CCOC(=O)c1c(Nc2ccc(OCC)cc2)nnc(-c2ccccc2)c1-c1ccccc1`: the survival was active: -2%.

For the compound `COc1ccc(Cn2nc3n(c2=O)-c2ccccc2OC3)cc1`, the survival is inactive: 67%.

Consider `C=CCn1c(COc2ccc(OC)cc2)n[nH]c1=S`, for which the survival is inactive: 95%.
